Source: the antibiotic and cytotoxicity screens of Wong et al. (2023)
The other results are listed elsewhere or left out.

test system: HSkMC (human skeletal muscle cells); experiment: cytotoxicity call (relative viability < 0.9); settings: 10 µM

Compound	cytotoxicity call
CC(C)NC(=O)Nc1ccc2c(c1)C(=O)N([C@H](C)CO)C[C@H](C)[C@H](CN(C)C(=O)Nc1ccccc1)OCCCC[C@@H](C)O2	inactive
Nc1ccn2ccnc2c1	inactive
CCc1c(C)[nH]c(=S)c(C#N)c1C	inactive
COc1ccc(C#Cc2ccc3c(c2)O[C@@H](CN(C)C(=O)c2ccccn2)[C@@H](C)CN([C@@H](C)CO)S3(=O)=O)cc1	inactive
COc1ccc(S(=O)(=O)N(C)C[C@H]2OCCCC[C@H](C)Oc3ccc(NS(=O)(=O)c4ccc(Cl)cc4)cc3C(=O)N([C@@H](C)CO)C[C@@H]2C)cc1	inactive
C[C@H](CO)N1C[C@H](C)[C@H](CN(C)S(C)(=O)=O)Oc2ccc(NC(=O)Cc3cn(C)c4ccccc34)cc2C1=O	inactive
CC1=C(C(=O)O)N2C(=O)[C@@H](NC(=O)[C@H](N)C3=CCC=CC3)[C@H]2SC1	inactive
C[C@H](CO)N1C[C@H](C)[C@H](CN(C)Cc2cccnc2)Oc2cc(C#CCN(C)C)ccc2S1(=O)=O	inactive
CO[C@@H]1CN(C)C(=O)c2ccc(NC(=O)C3CCOCC3)cc2OC[C@H](C)N(Cc2cccnc2)C[C@@H]1C	inactive
C[C@@H]1CN([C@H](C)CO)C(=O)c2cc(NS(=O)(=O)c3ccccc3)ccc2O[C@@H](C)CCCCO[C@H]1CN(C)Cc1ccc(C(=O)O)cc1	inactive
Cc1noc(C)c1NC(=O)N(C)C[C@H]1OCCCC[C@H](C)Oc2ccc(NC(=O)C3CCCCC3)cc2C(=O)N([C@H](C)CO)C[C@@H]1C	inactive
COC(=O)c1sc2ccccc2c1NC(=O)c1ccc(S(=O)(=O)N2C[C@@]3(C)C[C@@H]2CC(C)(C)C3)cc1	inactive
O=C(Cc1ccncc1)NCC[C@@H]1CC[C@H](NC(=O)C2CCOCC2)[C@H](CO)O1	inactive
CCCNC(=O)Nc1ccc2c(c1)C(=O)N(C)C[C@@H](OC)[C@H](C)CN(Cc1ccc(-c3ccccn3)cc1)[C@H](C)CO2	inactive
C[C@@H]1CCCCO[C@@H](CN(C)C(=O)Nc2ccc3c(c2)OCO3)[C@H](C)CN([C@@H](C)CO)C(=O)c2cc(NC(=O)c3ccccc3)ccc2O1	inactive
COc1cccc(S(=O)(=O)N(C)C[C@@H]2Oc3ncc(C#Cc4ccc(OC)c(OC)c4)cc3C(=O)N([C@H](C)CO)C[C@@H]2C)c1	inactive
COc1ccc(-c2cnc3c(c2)C(=O)N([C@@H](C)CO)C[C@@H](C)[C@H](CN(C)C(=O)Cc2ccncc2)O3)cc1	inactive
C[C@H]1CN([C@@H](C)CO)S(=O)(=O)c2ccc(C#Cc3ccccc3F)cc2O[C@@H]1CN(C)C(=O)Cc1ccncc1	inactive
COc1ccc(NC(=O)N(C)C[C@H]2Oc3cc(C#CCN(C)C)ccc3S(=O)(=O)N([C@@H](C)CO)C[C@H]2C)cc1	inactive
C[C@@H]1O[C@@H](O[C@H]2[C@H](O[C@H]3[C@H](O)[C@@H](C(=O)O)O[C@@H](O[C@H]4CC[C@]5(C)[C@H]6CC[C@]78OC[C@@]9(CCC(C)(C)C[C@@H]97)[C@H](O)C[C@@]8(C)[C@]6(C)CC[C@H]5C4(C)C)[C@@H]3OC3O[C@H](CO)[C@@H](O)[C@H](O)[C@H]3O)O[C@H](CO)[C@H](O)[C@@H]2O)[C@H](O)[C@H](O)[C@H]1O (stereo not given in full)	active

Compound	cytotoxicity call
O=C(CCCCCCC(=O)Nc1ccc([C@H]2C[C@H](c3ccccc3)O[C@H](c3ccccc3)O2)cc1)NO	inactive
COc1ccc(S(=O)(=O)N(C)C[C@H]2Oc3ccc(NS(C)(=O)=O)cc3C(=O)N([C@H](C)CO)C[C@@H]2C)cc1	inactive
CCS(=O)(=O)N1C[C@]2(CN(C2)C(=O)c2ccc3c(c2)OCO3)c2c(n(c3cc(ccc23)OC)C)[C@@H]1CO	inactive
C[C@H]1CCCCO[C@H](CN(C)S(=O)(=O)c2ccccc2)[C@@H](C)CN([C@@H](C)CO)C(=O)c2cc(NS(=O)(=O)c3ccc(Cl)cc3)ccc2O1	inactive
C[C@H](CO)N1C[C@H](C)[C@@H](CN(C)Cc2ccc(C(=O)O)cc2)Oc2ccc(NC(=O)c3ccncc3)cc2C1=O	inactive
COc1ccc(NC(=O)N(C)C[C@@H]2OCCCC[C@H](C)Oc3ccc(NC(=O)Cc4ccccc4)cc3C(=O)N([C@H](C)CO)C[C@@H]2C)cc1	inactive
CCCN(CCC)c1cc(N2CCCC2)c2ccccc2c1	inactive
C[C@@H]1CN([C@@H](C)CO)C(=O)c2cc(NC(=O)c3ccccc3)ccc2O[C@@H](C)CCCCO[C@@H]1CN(C)S(=O)(=O)c1ccc(F)cc1	inactive
COc1ccc(S(=O)(=O)N(C)C[C@@H]2Oc3ccc(NS(=O)(=O)c4c(C)noc4C)cc3CC(=O)N([C@@H](C)CO)C[C@@H]2C)cc1	inactive
CN(C)CCCNC(=O)[C@H]1[C@H](CO)[C@H]2Cn3c(ccc(-c4cccc(C(=O)N(C)C)c4)c3=O)[C@@H]1N2	inactive
C[C@@H]1CN([C@@H](C)CO)C(=O)Cc2cc(NC(=O)Nc3cccc4ccccc34)ccc2O[C@H]1CN(C)S(=O)(=O)c1ccc(Cl)cc1	inactive
CN(C)CCCNC(=O)C[C@@H]1C=C[C@H](NC(=O)Cc2cccnc2)[C@H](CO)O1	inactive
C[C@@H]1CCCCO[C@H](CN(C)C(=O)Nc2ccc(C(F)(F)F)cc2)[C@@H](C)CN([C@@H](C)CO)C(=O)c2cc(NC(=O)Nc3cccc4ccccc34)ccc2O1	inactive
Cn1cnc2c1[C@H](C(=O)N1CCN(c3ccccc3)CC1)N(S(C)(=O)=O)CC2	inactive
CCCNC(=O)N(C)C[C@H]1Oc2cc(-c3ccc(C)cc3)ccc2S(=O)(=O)N([C@H](C)CO)C[C@H]1C	inactive
COc1ccc(CN(C)C[C@H]2OCCCC[C@H](C)Oc3ccc(NC(=O)Nc4ccc5c(c4)OCO5)cc3C(=O)N([C@@H](C)CO)C[C@@H]2C)cc1	inactive
C[C@H](CO)N1C[C@H](C)[C@@H](CN(C)C(=O)Nc2ccc(C(F)(F)F)cc2)Oc2ccc(NC(=O)Cc3ccccc3)cc2CC1=O	inactive
CO[C@@H](C(=O)N(C)C[C@@H]1OCc2ccccc2-c2c(n(C)c3ccccc23)C(=O)N([C@H](C)CO)C[C@H]1C)c1ccccc1	inactive
O=C(C[C@H]1C=C[C@@H](NC(=O)CN2CCOCC2)[C@H](CO)O1)NC1CCCCC1	inactive
CCN1CCN(C(=O)NC(C(=O)NC2C(=O)N3C(C(=O)O)=C(CSc4nnnn4C)CSC23)c2ccc(O)cc2)C(=O)C1=O (stereo not given)	inactive
